According to the supplement of paper PMC4996465:
Counter-ions that a name gives are not always drawn. Viability of KB3-1 and Nalm-6 cells after 48 h of drug alone (CellTiter-Glo), 11 doses over about 4.5 log units. % of DMSO wells, lower = more cell loss; AC50 from the fitted curve, lower = more potent. No active / inactive call. Nalm-6 was screened in two runs. AC50 is listed only for well-fitted inhibitory curves. KB3-1 is a HeLa-derived carcinoma line, Nalm-6 a B-cell precursor leukaemia line.

What was measured:
[1] = test system: Nalm-6; assay: log AC50 of viability decrease (48 h) (log10 M); higher = less potent
Procedure: (§1)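 Eleven-dose screen of the NCATS MIPE 3 library on cells without co-treatment; CellTiter-Glo after 48 h. AC50 from the curve fit; only inhibitory curves of the better fit classes are listed.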

[2] = test system: KB3-1; assay: as above
Procedure: as §1

[3] = test system: Nalm-6; assay: viability (% of DMSO control); higher = more viable cells
Procedure: (§2)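 Eleven-dose screen of the NCATS MIPE 3 library on cells without co-treatment; CellTiter-Glo after 48 h, as % of DMSO wells.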

[4] = test system: KB3-1; assay: as above
Procedure: as §2

Row | Structure (SMILES) | log AC50 of viability decrease ([1]; run: 1) | log AC50 of viability decrease ([1]; run: 2) | log AC50 of viability decrease [2] | viability ([3]; run: 1, 0.00078 µM) [%] | viability ([3]; run: 1, 0.00234 µM) [%] | viability ([3]; run: 1, 0.00702 µM) [%] | viability ([3]; run: 1, 0.0211 µM) [%] | viability ([3]; run: 1, 0.0632 µM) [%] | viability ([3]; run: 1, 0.19 µM) [%] | viability ([3]; run: 1, 0.569 µM) [%] | viability ([3]; run: 1, 1.71 µM) [%] | viability ([3]; run: 1, 5.12 µM) [%] | viability ([3]; run: 1, 15.4 µM) [%] | viability ([3]; run: 1, 46.1 µM) [%] | viability ([3]; run: 2, 0.00078 µM) [%] | viability ([3]; run: 2, 0.00234 µM) [%] | viability ([3]; run: 2, 0.00702 µM) [%] | viability ([3]; run: 2, 0.0211 µM) [%] | viability ([3]; run: 2, 0.0632 µM) [%] | viability ([3]; run: 2, 0.19 µM) [%] | viability ([3]; run: 2, 0.569 µM) [%] | viability ([3]; run: 2, 1.71 µM) [%] | viability ([3]; run: 2, 5.12 µM) [%] | viability ([3]; run: 2, 15.4 µM) [%] | viability ([3]; run: 2, 46.1 µM) [%] | viability ([4]; 0.00078 µM) [%] | viability ([4]; 0.00234 µM) [%] | viability ([4]; 0.00702 µM) [%] | viability ([4]; 0.0211 µM) [%] | viability ([4]; 0.0632 µM) [%] | viability ([4]; 0.19 µM) [%] | viability ([4]; 0.569 µM) [%] | viability ([4]; 1.71 µM) [%] | viability ([4]; 5.12 µM) [%] | viability ([4]; 15.4 µM) [%] | viability ([4]; 46.1 µM) [%]
1 | Nc1ccccc1NC(=O)c1ccc(CNC(=O)OCc2cccnc2)cc1 [Entinostat] | -6.18 | -6.28 | -5.23 | 113 | 114 | 123 | 131 | 119 | 105 | 72.5 | 21.1 | 8.9 | 8.66 | 3.6 | 106 | 108 | 117 | 107 | 116 | 92.1 | 51.7 | 14.3 | 5.98 | 3.81 | 2.4 | 99.9 | 104 | 111 | 112 | 106 | 102 | 84 | 66.9 | 61.7 | 57.7 | 24.4
2 | C#Cc1cccc(Nc2ncnc3cc(OCCOC)c(OCCOC)cc23)c1 [Erlotinib hydrochloride] | -5.03 | -4.78 | -5.33 | 120 | 114 | 106 | 107 | 112 | 118 | 108 | 116 | 92.4 | 70.9 | 53.9 | 102 | 108 | 98.4 | 94.5 | 106 | 106 | 112 | 104 | 90.9 | 77.2 | 48.4 | 108 | 105 | 103 | 102 | 98 | 106 | 104 | 95.4 | 81 | 73.8 | 64.5
3 | CO[C@H]1C[C@@H]2CC[C@@H](C)[C@@](O)(O2)C(=O)C(=O)N2CCCC[C@H]2C(=O)O[C@H]([C@H](C)C[C@@H]2CC[C@@H](OCCO)[C@H](OC)C2)CC(=O)[C@H](C)/C=C(/C)[C@@H](O)[C@@H](OC)C(=O)[C@H](C)C[C@H](C)\C=C/C=C\C=C/1C [Everolimus] | -4.63 | – | -4.63 | 84.2 | 85.1 | 80.8 | 76.5 | 77.3 | 80.8 | 77.8 | 75.9 | 72.6 | 67 | -0.71 | 89 | 83.5 | 88.9 | 81.9 | 89.9 | 83.5 | 81.4 | 89.8 | 80 | 76.6 | -0.656 | 84.2 | 79.6 | 80 | 79.4 | 80.9 | 77.2 | 73.3 | 75 | 72.3 | 68.6 | 26.3
4 | CCC(=O)N[C@H]1CC[C@H](C(=O)N(C)c2ccc(-c3nc4ccccc4o3)cc2)C1 [FASN BI] | -4.93 | -5.13 | -5.13 | 113 | 116 | 112 | 114 | 102 | 98.5 | 102 | 94.8 | 82.8 | 65.2 | 44.9 | 102 | 112 | 105 | 98.8 | 96.2 | 104 | 101 | 102 | 81 | 68.2 | 57.3 | 104 | 107 | 96.9 | 108 | 105 | 106 | 110 | 98.4 | 92 | 78.7 | 71
5 | CC1=C(/C=C/C(C)=C/C=C/C(C)=C/C(=O)Nc2ccc(O)cc2)C(C)(C)CCC1 [Fenretinide] | -5.63 | -5.73 | -4.63 | 109 | 106 | 108 | 106 | 104 | 101 | 73.4 | 68.8 | 20.6 | 11.1 | -0.266 | 102 | 98.3 | 102 | 99.4 | 102 | 88.1 | 74 | 63 | 5.58 | 2.38 | 0.34 | 103 | 101 | 105 | 102 | 97.6 | 99.8 | 100 | 98.1 | 97.7 | 82.9 | 4.68
6 | CN1CC[C@H]([C@@H](O)C1)C2=C(O)C=C(O)C3=C2O\C(=C/C3=O)C4=CC=CC=C4Cl [Flavopiridol???] | -7.58 | -7.78 | -7.33 | 120 | 119 | 106 | 87.9 | 18 | 11.6 | 16.4 | 15.9 | 17.1 | 19 | 12.6 | 108 | 108 | 98.1 | 49.7 | 8.88 | 10 | 17.1 | 12.5 | 18.5 | 17.8 | 20.8 | 105 | 103 | 104 | 93.8 | 48.6 | 25.9 | 25.9 | 24.9 | 24.8 | 22.8 | 24.4
7 | CC(C)n1c(/C=C/[C@H](O)C[C@H](O)CC(=O)[O-])c(-c2ccc(F)cc2)c2ccccc21 [Fluvastatin] | -5.18 | -5.08 | -5.03 | 90.6 | 94.3 | 96.8 | 100 | 89.5 | 106 | 112 | 99.8 | 85.2 | 54.5 | 55 | 94.7 | 101 | 94.2 | 97.8 | 96.3 | 102 | 95.8 | 95.4 | 78 | 25.5 | 17.5 | 91.4 | 99 | 98.1 | 101 | 97.8 | 101 | 99.8 | 95.8 | 84.3 | 39.5 | 29.9
